# Source: PubChem BioAssay AID624296 (National Center for Advancing Translational Sciences (NCATS), 2012)
# About 9,900 (2.8%) of roughly 350,000 compounds were called active. Inconclusive means that the source gave no clear call. Such entries were picked first, then a sample of the others. Calls follow the shape of the dose curve; as a rule, active = well fitted activation curve with a large enough effect; inconclusive = small, poorly fitted or top-dose-only effect; inactive = no such curve, though single readings can be large or run the other way. No potency is given beside an inconclusive call; the fits are too rough.
# Experiment: A quantitative high throughput screen for small molecules that induce DNA re-replication in MCF 10a normal breast cells. Also: nearly all actives have a fitted effect of over 50% in size.
# Conditions: MCF 10A DNA re-replication, Hoechst nuclear intensity, 48 h; series mostly up to 46.1 µM
# Potency is read from the fitted curve at half-maximal effect; tags tell the direction and shape of the fitted curve.
row,SMILES,Potency
1,CC(=O)OC(C=C(C)C)C/C(C)=C/COc1c2ccoc2cc2oc(=O)ccc12 (centres undefined),inactive
2,CC(C)(C)C1COc2ccccc2N1C(=O)c1cccc(Cl)c1 (centres undefined),"inconclusive [activator, single point]"
3,O=C(/C=C/c1ccccc1)CCN1CCCCC1,active: 6.51 µM
4,Nc1c2nc(-c3ccccc3)[nH]c(=O)c2nc(=O)n1-c1ccccc1,"inconclusive [activator, partial curve, poor fit]"
5,CCCCNc1c(-c2cccc(Sc3ccc(OC)cc3)c2)nc2ccccn12,active: 18.4 µM
6,Cc1ccn2cc(-c3ccc(NC(=O)c4ccco4)cc3)nc2c1,"inconclusive [activator, single point]"
7,CCCC(c1nnnn1Cc1cccs1)N1CCN(C)CC1 (centres undefined),"inconclusive [activator, partial curve, poor fit]"
8,O=C(N/N=C/c1ccc([N+](=O)[O-])o1)c1ccccc1NS(=O)(=O)c1cccs1,active: 18.4 µM
9,COc1ccc(S(=O)(=O)Nc2ccccn2)c(C)c1C,inactive
10,COc1ccc(-c2noc(CCC(=O)N3CCN(c4cccc(C)c4C)CC3)n2)cc1,"inconclusive [activator, partial curve, poor fit]"
11,O=c1cc(-c2ccccc2)[nH]c2ccc(F)cc12,active: 2.06 µM
12,O=C1Nc2ccccc2C1C(C[N+](=O)[O-])c1ccccn1 (centres undefined),inactive
13,Cc1sc2nc(C3CC3)nc(N3CCN(C(=O)c4ccc(Cl)cc4)CC3)c2c1C,"inconclusive [activator, partial curve, poor fit]"
14,CCN1CCC2(CC1)N=C(c1ccc(F)cc1)C(=S)N2C(=O)c1ccc(C)cc1,active: 13 µM
15,Cc1ccc(S(=O)(=O)N2CCOCC2)cc1NC(=O)CSc1nnnn1C,"inconclusive [activator, partial curve, poor fit]"
16,COc1ccc(NC(=O)c2cc(S(=O)(=O)N3CCCCC3)ccc2OC)cc1,inactive
17,C=CCN=c1scc(-c2ccc(F)cc2)n1/N=C/c1ccccn1,"inconclusive [activator, partial curve]"
18,Cc1ccc(Oc2nc(CN3CCOCC3)nc3sc4c(c23)CCC(C)C4)cc1C (centres undefined),"inconclusive [activator, single point]"
19,O=C1C=C(c2cc(F)ccc2F)C[C@@H](c2ccc(F)cc2)C1,"inconclusive [activator, single point]"
20,Cc1ccccc1OCC(=O)O/N=C(\N)Cc1cccs1,inactive
21,Cc1ccc(-c2csc(NC(=O)c3cccc(S(=O)(=O)N4CCN(C)CC4)c3)n2)cc1,inactive
22,O=C(Nc1ccc(CN2CCCCC2)cc1)c1cccc(Br)c1,"inconclusive [activator, single point]"
23,Cc1ccc(-c2cc(C(=O)Nc3nccs3)c3ccccc3n2)o1,"inconclusive [activator, partial curve, poor fit]"

row,SMILES,Potency
1,NC(=O)c1ccsc1NC(=O)COC(=O)/C=C/c1ccc([N+](=O)[O-])cc1,"inconclusive [activator, single point]"
2,NC(=O)N/N=C(/CCCCCC/C(=N\NC(N)=O)c1ccccc1)c1ccccc1,"inconclusive [activator, single point]"
3,COc1ccc(NC(=S)NC(=O)Cc2ccccc2)cc1,inactive
4,CC(C)(CNC(=O)c1ccc(-c2ccccc2Cl)o1)N1CCOCC1,inactive
5,COc1ccc(C(CNC(=O)c2ccc(NS(=O)(=O)c3ccccc3)cc2)N2CCOCC2)cc1 (centres undefined),"inconclusive [activator, single point]"
6,COc1cc([N+](=O)[O-])ccc1-c1ccc(/C=C2\C(=O)ON=C2c2ccccc2)o1,inactive
7,O=C(CN1CCN(c2ccc(F)cc2)CC1)N1CCC(Cc2ccccc2)CC1,active: 8.2 µM
8,CS(=O)(=O)N1CCN(c2ccc(NC(=O)c3ccc(-c4ccc(Cl)cc4)o3)cc2)CC1,"inconclusive [activator, single point]"
9,CC(=O)NC12CC3CC(C1)CC(C(=O)N1CCN(S(=O)(=O)c4ccccc4C#N)CC1)(C3)C2,"inconclusive [activator, single point]"
10,Cn1c(N)c(C(=O)COC(=O)c2ccc(Cl)c(S(=O)(=O)N3CCCC3)c2)c(=O)n(C)c1=O,inactive
11,COCCn1c(C)cc(C(=O)CSc2cc(C)c3ccc(OC)cc3n2)c1C,"inconclusive [activator, full curve, poor fit]"
12,Cc1ccc(OCC(=O)Nc2cccnc2Cl)cc1C,inactive
13,Cc1cc(Cl)cc(Cl)c1OCC(=O)NCc1ccco1,"inconclusive [activator, partial curve, poor fit]"
14,O=C(O)CSCC(=O)N1CCN(S(=O)(=O)c2ccccc2)CC1,"inconclusive [activator, single point]"
15,COc1ccc(Nc2nnc(SCc3cn4c(C)cccc4n3)s2)cc1,"inconclusive [activator, single point]"
16,CCO[C@H]1OC(C(=O)N2CCOCC2)=C[C@@H](C2CC2)[C@@H]1CCCO,"inconclusive [activator, full curve, poor fit]"
17,COc1ccc(C(=O)/C=C/c2ccc(O)cc2)c2c1CC(O)C(C)(C)O2 (centres undefined),inactive
18,CC(C)(C)OC(=O)N1CCC(C(=O)Nc2cccc(C(=O)NCc3ccccc3)c2)CC1,"inconclusive [activator, full curve, poor fit]"
19,CCCc1[nH][nH]c(=O)c1C(c1cccc(Cl)c1)C(C#N)C#N (centres undefined),"inconclusive [activator, single point]"
20,COc1ccc(OC)c(NC(=O)C2CCN(c3cc(-c4ccccc4)nc4ncnn34)CC2)c1,inactive
21,O=C(CCN1CCc2ccccc2C(O)(c2ccccc2)C1)c1ccc2c(c1)OCCO2 (centres undefined),active: 6.51 µM
22,Cc1cccc(C)c1OCc1cc(C(=O)N2CCN(c3ccc(F)cc3)CC2)no1,"inconclusive [activator, partial curve, poor fit]"
23,CC1(C)Cc2c(C#N)c(SCc3ccccc3)nc(N3CCOCC3)c2CO1,"inconclusive [activator, full curve]"

row,SMILES,Potency
1,CN1CCC(N(C)C(=O)c2ccccc2Nc2ccc(SC(F)F)cc2)CC1,active: 8.2 µM
2,Cc1cccn2c(=O)c3cc(C(=O)NC4CCCC4)c(=N)n(CCCN4CCOCC4)c3nc12,inactive
3,Cc1ccccc1NC(=O)c1ccc(Cn2cc([N+](=O)[O-])cn2)o1,inactive
4,O=c1oc2ccccc2nc1/C=C(O)/C=C/c1ccc(F)cc1,"inconclusive [activator, single point]"
5,CCOc1ccc(NC(=O)CN2CCc3ccccc3C2)cc1,"inconclusive [activator, single point]"
6,COc1cccc(C2c3[nH]c4ccccc4c3C[C@H]3C(=O)N(c4ccccc4C(=O)NCCCN4CCOCC4)C(=O)N23)c1 (some centres undefined),"inconclusive [activator, partial curve, poor fit]"
7,CCOC(=O)C1CCN(S(=O)(=O)c2ccccc2[N+](=O)[O-])CC1,inactive
8,Cc1ccc(C(C)C)c(OCC(=O)Nc2ccccc2N2CCN(C)CC2)c1,"inconclusive [activator, single point]"
9,O=C(c1ccc(S(=O)(=O)c2cccc(Cl)c2)c([N+](=O)[O-])c1)N1CCN(Cc2ccccc2)CC1,active: 20.6 µM
10,Cc1ccc(C)c(S(=O)(=O)N2CCN(C(=O)CCC(=O)NCc3ccc(Cl)cc3Cl)CC2)c1,active: 20.6 µM
11,Cc1ccc(S(=O)(=O)N2CCCCC2C(=O)NCc2ccco2)cc1 (centres undefined),"inconclusive [activator, partial curve, poor fit]"
12,CCN(C(=O)CN1C(=O)COc2ccc(S(=O)(=O)N3CCCCCC3)cc21)c1cccc(C)c1,inactive
13,COc1ccccc1C(=O)NCC(=O)OCC(=O)N(CC(C)C)c1c(N)n(Cc2ccccc2)c(=O)[nH]c1=O,inactive
14,Cc1ncsc1CCC(=O)N1CCCC(Nc2ccc(F)c(F)c2)C1 (centres undefined),inactive
15,O=C1/C(=C/c2cccnc2)SC(=S)N1c1ccc(O)cc1,"inconclusive [activator, single point]"
16,COc1ccc(OC)c(NC(=O)CSc2nnc3ccc(-c4ccccn4)nn23)c1,inactive
17,NCCc1cnc[nH]1,"inconclusive [activator, full curve, poor fit]"
18,COC(=O)c1ccc(Nc2cc(C)nc(-c3ccccc3O)n2)cc1,"inconclusive [activator, partial curve, poor fit]"
19,NS(=O)(=O)c1ccc(CCNC(=O)c2ccc3c(=O)n4c(nc3c2)CCCCC4)cc1,"inconclusive [activator, single point]"
20,CC(C)N(C(=O)[C@H]1C[C@H](CC(=O)NCc2ccco2)C(=O)N2CCc3c([nH]c4ccc(Cl)cc34)[C@]12C)C(C)C,"inconclusive [activator, single point]"
21,COc1ccc(NC(=O)c2cc3c(s2)CCC3)cc1S(=O)(=O)N1CCOCC1,"inconclusive [activator, single point]"
22,COc1ccc(NC(=O)Cn2c(C(C)C)nc(C)cc2=O)cc1Cl,inactive
23,OCCCNC(=S)Nc1ccc(Br)cc1Cl,"inconclusive [activator, single point]"
